PubChem BioAssay AID624202 (National Center for Advancing Translational Sciences (NCATS), 2012)
The whole screen tested about 380,000 compounds, of which about 4,000 (1.1%) were called active. This list was built around the results that the source calls inconclusive (neither active nor inactive); the mix of calls is not that of the screen. Calls come from the whole dose curve; as a rule, active = well fitted activation curve with a large enough effect; inconclusive = small, poorly fitted or top-dose-only effect; inactive = no such curve, though single readings can be large or run the other way. A potency beside an inconclusive call is a rough fit, not a confirmed value.

Assay: qHTS Assay to Identify Small Molecule Activators of BRCA1 Expression; note: nearly all actives have a fitted effect of over 80% in size
Details: MCF7-BRCA1-FFLuc reporter, luminescence, 48 h; activation: at 46.1 µM (top of the series), scaled: vehicle 0%, 10 µM genistein 100% unless noted
Procedure, shortened: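 MCF7-BRCA1-FFLuc, 2000 cells/well; 2 h attach, 37 °C/5% CO2; compound 48 h; luciferase substrate 15 min; luminescence end-point. Norm. to genistein 10 microM max activation and DMSO; concentration-response curves fitted.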
Potency is the fitted concentration of half-maximal effect; tags give direction and shape of the fitted curve.

Compound	Potency	activation
COc1cc(C)ccc1OCc1cc(C(=O)NCCN2CCOCC2)no1	inconclusive: 35.5 µM [activator, single point]	–
C=CCn1c(SCC(=O)Nc2ccc(-c3nc4ccc(C)cc4s3)cc2)nnc1-c1ccncc1	–	inconclusive: 77.2% [activator]
COC(=O)C1C(=O)c2c([nH]c(C(=O)OC3CCCC3C)c2C)CC1C (centres undefined)	inconclusive: 1.78 µM [activator, full curve, poor fit]	–
c1ccc2c(c1)ncn2-c1cncnc1	–	inactive: 20.9%
C/C(=N\NC(=O)c1ccccc1F)c1ccc(C#N)cc1	inconclusive: 31.6 µM [activator, partial curve, poor fit]	–
Cc1ccc(C(=O)Nc2ncc(Cc3ccc(F)cc3)s2)o1	inconclusive: 2.51 µM [activator, full curve, poor fit]	–
Cc1ccn2cc(-c3cccc(NC(=O)c4ccccc4)c3)nc2c1	inconclusive: 15.8 µM [activator, partial curve, poor fit]	–
O=C(/C=C/c1cccc(Cl)c1)N1CCC(Cc2ccccc2)CC1	inconclusive: 22.4 µM [activator, single point]	–
CCCCc1c(C)c2ccc(OCC(C)=O)cc2oc1=O	inconclusive: 2.24 µM [activator, full curve, poor fit]	–
C#CCn1c(C)cc(C)c(S(=O)(=O)c2ccccc2)c1=O	active: 12.6 µM	–
c1ccc2[nH]c(-c3cscn3)nc2c1	active: 11.2 µM	–
COC1C=CC=C(C)C(=O)NC2=CC(=O)C(N)=C(CC(C)CC(OC)C(O)C(C)C=C(C)C1OC(N)=O)C2=O (centres undefined)	–	inconclusive: -98.5% [activator]
O=C1CSC2=NCN(c3ccc4c(c3)OCO4)CN12	inconclusive: 35.5 µM [activator, single point]	–
COc1ccc(/C=C/C2=NC(=C\N(C)C)/C(=O)O2)cc1	inconclusive: 17.8 µM [activator, partial curve, poor fit]	–
CCOC(=O)c1sc(NC(=O)C2CCC2)cc1C	inconclusive: 12.6 µM [activator, partial curve, poor fit]	–
Cc1[nH]n(-c2ccccc2)c(=O)c1C=NCCc1ccccc1	inconclusive: 20 µM [activator, single point]	–
O=C(COc1ccccc1Cl)N1CCc2ccccc21	inconclusive: 1.41 µM [activator, full curve, poor fit]	–
CC(C)OC(=O)CSc1nc2cc3c(cc2cc1C#N)OCO3	active: 4.47 µM	–
O=C(Nc1ccccc1F)N1CCc2ccccc2C1	inconclusive: 2.51 µM [activator, partial curve, poor fit]	–
COc1ccc(NC2=Nc3ccccc3CC2)cc1	inconclusive: 2.24 µM [activator, full curve, poor fit]	–
CCOc1ncccc1C(=O)OCc1ccc(C(=O)OC)cc1	inconclusive: 2.51 µM [activator, full curve, poor fit]	–
COc1ccc(C(=O)COC(=O)c2cc(=O)c3ccccc3o2)c(OC)c1	–	inactive: -2.89%

Compound	Potency	activation
CC(=O)Nc1ccc(C2=NN(CC#N)C(=O)SC2)cc1	–	inactive: 1.68%
Nc1nnc(SCC(=O)c2ccc3ccccc3c2)s1	inconclusive: 2.82 µM [activator, partial curve, poor fit]	–
COc1ccc(C(=O)CNc2ccccc2C#N)cc1	inconclusive: 7.94 µM [activator, partial curve, poor fit]	–
c1ccc2c(c1)Cn1nc(Cc3nc4c(s3)CCCC4)nc1-2	inconclusive: 22.4 µM [activator, single point]	–
CC(=O)c1cccc(OCc2cc(C(=O)N(C)CCC3CCOCC3)no2)c1	inconclusive: 11.2 µM [activator, partial curve, poor fit]	–
COc1ccc(CCc2nnc(CCC(=O)NCc3cc(C(C)C)no3)o2)cc1	inconclusive: 14.1 µM [activator, partial curve, poor fit]	–
CCN(c1ccc(OC)cc1)S(=O)(=O)c1ccc(-c2cc(C)no2)s1	–	inactive: -38.8%
COCCn1c(C)cc(C(=O)COC(=O)c2cccnc2SC)c1C	active: 8.91 µM	–
O=C(Nc1ccc2c(c1)OCCO2)c1cccc(Cl)c1	inconclusive: 7.94 µM [activator, partial curve, poor fit]	–
Fc1ccc(CNc2ccn3nc(-c4ccccc4)cc3n2)cc1	inconclusive: 6.31 µM [activator, partial curve, poor fit]	–
COc1cccc(NC(=O)c2c(F)cccc2F)c1	inconclusive: 11.2 µM [activator, partial curve, poor fit]	–
Cc1ccc(-c2csc(NC(=O)c3ccco3)n2)cc1C	inconclusive: 17.8 µM [activator, partial curve, poor fit]	–
CCN(CC)CCCNC(=O)CCC(=O)Nc1ccc2nc(N3CCCCC3)cc(C)c2c1	active: 11.2 µM	–
Cc1cc(C)cc(NC(=O)C(=O)NCC2CCCO2)c1 (centres undefined)	inconclusive: 35.5 µM [activator, single point]	–
COc1ccc(Nc2nc(N)nc(CSc3nnc(N)s3)n2)cc1	inconclusive: 11.2 µM [activator, partial curve, poor fit]	–
CCC(C)Cn1cnc2c(SCc3ccccc3F)nc(N)nc21 (centres undefined)	–	inactive: 12.8%
CC(=Nc1ccc(C)cc1C)c1sc2ccccc2c1O	inconclusive: 1.58 µM [activator, partial curve, poor fit]	–
COc1ccc(NC(=O)c2ccc3ncsc3c2)cc1	inconclusive: 1.58 µM [activator, partial curve, poor fit]	–
Cc1oc2cc3oc(=O)c(CCC(=O)NC4CC4)c(C)c3cc2c1C	active: 6.31 µM	–
CCCOc1ccc(N2C(=O)CC(SCCN)C2=O)cc1 (centres undefined)	inconclusive: 0.501 µM [activator, full curve, poor fit]	–
Cc1ccc(OCCSc2nc(N)cc(N)n2)cc1	inconclusive: 7.94 µM [activator, partial curve, poor fit]	–
Cc1ccc(Nc2nc3nonc3[nH]c2=O)cc1	active: 11.2 µM	–
